Results as given in the supplement of paper PMC8948288.
The sequences are guide strands of siRNAs; only the seed at positions 2 to 7 varies.

Experiments:
GL261 = experiment: cell viability relative to siNT1 (ATP content); H4 human neuroglioma and GL261 mouse glioma; higher = less toxic; conditions: siRNA concentration 25 nM; 96 h; mouse
Method: (§1)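 Arrayed screen of all 4096 6mer seeds. Each seed sits at guide-strand positions 2-7 of a neutral 19mer siRNA backbone (siNT1-based, passenger strand 2'-O-methyl modified at positions 1-2 to block RISC loading, 3' DNA overhangs). The guide strand is built here as U + seed + ACAUGUAAACCA. Cells were reverse transfected in triplicate in 384-well plates (H4 at 10 nM, GL261 at 25 nM) with Lipofectamine RNAiMAX. Viability was read as ATP content (CellTiter-Glo) 96 h after transfection and normalised to siNT1 (%).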

H4 = experiment: as above; conditions: siRNA concentration 10 nM; 96 h; human
Method: as §1
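Also: cells reverse transfected with siRNA duplexes via lipid reagent, ATP read by luminescence, triplicate wells, values scaled to mean viability with non-targeting control siNT1.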

| Sequence | cell viability (GL261) [%] | cell viability (H4) [%] |
| --- | --- | --- |
| UAAGGUAACAUGUAAACCA | 50.5 | 99.1 |
| UAAGGUCACAUGUAAACCA | 30.4 | 98.6 |
| UAAGGUGACAUGUAAACCA | 77.1 | 82.9 |
| UAAGGUUACAUGUAAACCA | 56.5 | 96.5 |
| UAAGUAAACAUGUAAACCA | 88.9 | 109 |
| UAAGUACACAUGUAAACCA | 55.3 | 57.3 |
| UAAGUAGACAUGUAAACCA | 71.3 | 89.1 |
| UAAGUAUACAUGUAAACCA | 73.3 | 84.6 |
| UAAGUCAACAUGUAAACCA | 49.8 | 81.5 |
| UAAGUCCACAUGUAAACCA | 15.5 | 55.6 |
| UAAGUCGACAUGUAAACCA | 37.5 | 112 |
| UAAGUCUACAUGUAAACCA | 50.1 | 84.4 |
| UAAGUGAACAUGUAAACCA | 52.4 | 109 |
| UAAGUGCACAUGUAAACCA | 47.8 | 79.6 |
| UAAGUGGACAUGUAAACCA | 24.7 | 88.9 |
| UAAGUGUACAUGUAAACCA | 37.5 | 81.8 |
| UAAGUUAACAUGUAAACCA | 65.1 | 90.9 |
| UAAGUUCACAUGUAAACCA | 57.5 | 71.1 |
| UAAGUUGACAUGUAAACCA | 53.7 | 111 |
| UAAGUUUACAUGUAAACCA | 58.8 | 105 |
| UAAUAAAACAUGUAAACCA | 67.5 | 103 |
| UAAUAACACAUGUAAACCA | 67.8 | 113 |

| Sequence | cell viability (GL261) [%] | cell viability (H4) [%] |
| --- | --- | --- |
| UAAUAAGACAUGUAAACCA | 80.8 | 91.2 |
| UAAUAAUACAUGUAAACCA | 53.1 | 88.9 |
| UAAUACAACAUGUAAACCA | 73 | 94.2 |
| UAAUACCACAUGUAAACCA | 41.5 | 61.7 |
| UAAUACGACAUGUAAACCA | 73.5 | 111 |
| UAAUACUACAUGUAAACCA | 49 | 73.9 |
| UAAUAGAACAUGUAAACCA | 54.8 | 106 |
| UAAUAGCACAUGUAAACCA | 26.7 | 60.7 |
| UAAUAGGACAUGUAAACCA | 34.7 | 98.9 |
| UAAUAGUACAUGUAAACCA | 8.55 | 82.3 |
| UAAUAUAACAUGUAAACCA | 57.6 | 87.1 |
| UAAUAUCACAUGUAAACCA | 32.4 | 102 |
| UAAUAUGACAUGUAAACCA | 56.6 | 102 |
| UAAUAUUACAUGUAAACCA | 60.6 | 108 |
| UAAUCAAACAUGUAAACCA | 55.2 | 88.9 |
| UAAUCACACAUGUAAACCA | 52.3 | 78.9 |
| UAAUCAGACAUGUAAACCA | 60 | 93.1 |
| UAAUCAUACAUGUAAACCA | 48.9 | 77.9 |
| UAAUCCAACAUGUAAACCA | 64.3 | 92.7 |
| UAAUCCCACAUGUAAACCA | 17.7 | 39.4 |
| UAAUCCGACAUGUAAACCA | 58.9 | 79.5 |
| UAAUCCUACAUGUAAACCA | 27.7 | 61.7 |

| Sequence | cell viability (GL261) [%] | cell viability (H4) [%] |
| --- | --- | --- |
| UAAUCGAACAUGUAAACCA | 80.2 | 86.5 |
| UAAUCGCACAUGUAAACCA | 27.5 | 70.5 |
| UAAUCGGACAUGUAAACCA | 64.2 | 82.3 |
| UAAUCGUACAUGUAAACCA | 63.2 | 86.7 |
| UAAUCUAACAUGUAAACCA | 66.9 | 113 |
| UAAUCUCACAUGUAAACCA | 63 | 89.9 |
| UAAUCUGACAUGUAAACCA | 80 | 80.4 |
| UAAUCUUACAUGUAAACCA | 53.7 | 109 |
| UAAUGAAACAUGUAAACCA | 63.3 | 97.6 |
| UAAUGACACAUGUAAACCA | 12.3 | 64.3 |
| UAAUGAGACAUGUAAACCA | 43.5 | 70.9 |
| UAAUGAUACAUGUAAACCA | 35.2 | 66 |
| UAAUGCAACAUGUAAACCA | 37.4 | 100 |
| UAAUGCCACAUGUAAACCA | 10.4 | 66.8 |
| UAAUGCGACAUGUAAACCA | 42.8 | 120 |
| UAAUGCUACAUGUAAACCA | 13.9 | 80 |
| UAAUGGAACAUGUAAACCA | 55.6 | 110 |
| UAAUGGCACAUGUAAACCA | 15.1 | 50.2 |
| UAAUGGGACAUGUAAACCA | 37.1 | 62.4 |
| UAAUGGUACAUGUAAACCA | 37.4 | 62.7 |
| UAAUGUAACAUGUAAACCA | 57.9 | 106 |
| UAAUGUCACAUGUAAACCA | 25.4 | 109 |

| Sequence | cell viability (GL261) [%] | cell viability (H4) [%] |
| --- | --- | --- |
| UAAUGUGACAUGUAAACCA | 35.1 | 91.3 |
| UAAUGUUACAUGUAAACCA | 27.7 | 74.6 |
| UAAUUAAACAUGUAAACCA | 63.7 | 109 |
| UAAUUACACAUGUAAACCA | 50.5 | 58.1 |
| UAAUUAGACAUGUAAACCA | 53.3 | 92.5 |
| UAAUUAUACAUGUAAACCA | 60.6 | 58.9 |
| UAAUUCAACAUGUAAACCA | 53.2 | 91.8 |
| UAAUUCCACAUGUAAACCA | 28 | 33.1 |
| UAAUUCGACAUGUAAACCA | 59.9 | 103 |
| UAAUUCUACAUGUAAACCA | 42.2 | 77.2 |
| UAAUUGAACAUGUAAACCA | 69.3 | 96.4 |
| UAAUUGCACAUGUAAACCA | 19.3 | 44.6 |
| UAAUUGGACAUGUAAACCA | 30.3 | 58.1 |
| UAAUUGUACAUGUAAACCA | 40 | 61.5 |
| UAAUUUAACAUGUAAACCA | 72 | 101 |
| UAAUUUCACAUGUAAACCA | 38.9 | 91.3 |
| UAAUUUGACAUGUAAACCA | 62.1 | 97.1 |
| UAAUUUUACAUGUAAACCA | 50.9 | 83.3 |
| UACAAAAACAUGUAAACCA | 67.9 | 83.1 |
| UACAAACACAUGUAAACCA | 50.8 | 83.8 |
